Data published in publication PMC4207660, “Identification and Characterization of Hundreds of Potent and Selective Inhibitors of Trypanosoma brucei Growth from a Kinase-Targeted Library Screening Campaign” (PLoS Neglected Tropical Diseases, 2014).
Values joined by “and” are separate entries in the source; they are usually repeats but may differ in a detail not shown here. Equal entries are not always repeated.

Experiment: Mouse pharmacokinetics (peripheral whole blood)
Type: in vivo, NMRI female mice
Method: For pharmacokinetic studies NMRI female mice of 20–25 g weight were used. […] All mice received treatment in the fed state. […] Peripheral total blood was the compartment chosen for the establishment of compound concentrations. […] LC-MS was used as the analytical method of choice for the establishment of compound concentration in blood with a sensitivity of LLQ = 1–5 ng/ml in 20 µL of blood. The non-compartmental data analysis (NCA) was performed with WinNonlin Phoenix 6.3 (Pharsight, Certara L.P) and supplementary analysis was performed with GraphPad Prism 6 (GraphPad Software, Inc).

[1] = female, mouse, IP, real doses NEU-1200 5, NEU-1207 4.5, NEU-1053 5 mg/kg, NMRI mice, whole blood, mean n=3
[2] = female, mouse, IV, real doses NEU-1200 1, NEU-1207 0.9, NEU-1053 1.12 mg/kg, NMRI mice, whole blood, mean n=3
[3] = female, mouse, PO, real doses NEU-1207 4.5, NEU-1053 5 mg/kg, NMRI mice, whole blood, mean n=3

OCCn1c(CNCCCNc2nc3ccccc3[nH]2)cc2c(Cl)cc(Cl)cc21 [NEU-0001053]
bioavailability (female, NMRI, mouse, whole blood, PO, real doses NEU-1207 4.5, NEU-1053 5 mg/kg, mean n=3): 8.5%
Cmax [1]: 147 ng/mL and 339 nM
Tmax [1]: 0.42 h
half-life [1]: 7.2 h
clearance [2]: 110 mL/min/kg
half-life [2]: 1.7 h
Vd (female, mouse, IV, real doses NEU-1200 1, NEU-1207 0.9, NEU-1053 1.12 mg/kg, NMRI mice, whole blood, mean n=3, read-out: Vss): 12.8 L/kg
Cmax [3]: 28.6 ng/mL and 66.2 nM
Tmax [3]: 0.42 h
time total blood exposure was in excess of the EC99 (intraperitoneal 5 mg/kg single dose): > 24 h
